B1: LC3A_141_372 (protein)
chain: TTTTETWTVGEASLDELLAAVDAAFALVEEKLAANPDAVVTVTLTLTVYDEETKETTTITETYTVTKENLELVKEGAEIAVESASLKGKTTLTITLTFDE
B2: LC3A_3_1352 (protein)
chain: MEELIERAVERLREAGLSEEAIAAARAAMEALAAQGHEEAIERLTEVLLKHKDAPEEHIIAALNNLTAELKANPNLTEEEVLELVELFDADLAIEPLEEE
B3: LC3A_free_8_2449 (protein)
chain: SAEEATRTALEGLDRLEEELVALAKKLGLSRLDILDIELLVGSTIADVISNRDKTPEEILKTTEEGLKEILEEAKKLGEELAKLAEKLSKEILERLKAIA
B4: LC3A_36_1340 (protein)
chain: QKVITATAKEEDIKKATAKANAEGADLRLEFSPETTVEEIEKALNLVLELSKNISNIIIDLDAKTQEELQKKLVVASKVADKIEKENGKNVIIAYDVVEP
B5: LC3A_132_313 (protein)
chain: SEKKYEEIKKKLEELLKEAEKNINDKEKVEELLKEIRKLLEEAEKELSPEQVKELYDFVADRLYKLSLKADEAGKEDVSLLLDAAAIEAASKALKAEKKI
B6: LC3A_28_738 (protein)
chain: SAIEKELEKAIKEAKEAAKAKEPKVITITVPGTANEEDIELVIKALEEIAEILKDVKDQAIIIDVDGKLDPELLKKLMDKAEEIEEKYPNVTVIIALDEE
B7: LC3A_28_1061 (protein)
chain: SEVEEEIERALAEAREAVAAGEEALVTLTINEKDTEEDVEKKLETMREIAELAKSLPRVTIIVDVDSERKEEITKKVSEVGDELEKKYPNVTVIIALSEE
B8: LC3A_147_497 (protein)
chain: VKVKIEFENISEELKEKIEELAKKLEELAKKYKGKIKVNIIIDILDKDGGYARIELEAYVENEEEAKKLINEVIDLVEEFEEENKDLVSAVVISAEIEEP
B9: LC3A_3_1688 (protein)
chain: MEEKVEEVLKLAKENGLSEEALKALKELLEALAERGYLKAIEEVYEELKKLKNVSSEDIKAMFEELLKEVKEKDLSEEEIVELIREEARVLLNASEIIEL
B10: LC3A_3_1444 (protein)
chain: MEEILEEARKVAEEIGLSEEAIEAVLRLIKKALEAGEVEGAKELIEVLKESKDVPSEEILEIAERALRRIEEEGVSVKEAIEEFIEELRVLRLEKEIEEL
B11: LC3A_3_1875 (protein)
chain: MDEKIEETIELLKEAGASEETIEKFEEVAELLKERGYEEALETLIEEVKKLAGTSDEILLDFLEEVLEVLKTKDLSEEELIEEIKRIARLALNEAEIIEL
B12: LC3A_28_1102 (protein)
chain: SELEENLEKALAEVKKAAERGEEVLVTINVGEDATEEDLEKLKETLEEMAEIAKDLPRLTVIINLDGEGAEEKANILGEHAEELEKKYPNLTIIIALPED
B13: LC3A_3_1898 (protein)
chain: MDERVAATLERLRAAGASEETLAAFERVAKKLKERGYDEALETLIEELERLAGLPSELLLAFLEEVLEVLETEDLSEEELIERIKEIARLTLNEGEIIEL
B14: LC3A_3_1863 (protein)
chain: MEEIKEEILELLRSLGRSEETIEAAEELANALIERGYEEALKTLLEELKKLADVPDEILLAMFEDILRALKEENLNEEEVIKLIKEEARIARNEHEIEEL
B15: LC3A_free_8_2448 (protein)
chain: KTKEVVNKVTALLDELEEEVTKKAKELGLSRLDILEMELLIGSAKIELISNVDKSIEEIKKIAEEELEEIIEFAKTLSEELAEIVEKYKEKILKLIEEAL
B16: LC3A_28_977 (protein)
chain: SAIEEALAKVLAEAEAAAAAGEPAVITITVPGDATEEEIEKVIEALRRVAEILKDVPGAAIIIDLDGDVSEENQQKLMEAAEEVEEKYPNITVIIALDEK
B17: LC3A_3_1818 (protein)
chain: LEERVEEAERLLRERGASEETLEAFREAAEALRERGYEKALETLIELARELADLPSELLLALFEDVLELVETSDDDEETITARIKEIAATHRNEAEIIEL
B18: LC3A_28_856 (protein)
chain: STTDASIAAARAELAAAVAAGTEVTITITVTEDVTEAQVERVIAAIEEAAAASAQVPRLDVIVDVDGKVDPAHLKRIAEAGDEASERNPNLTVIIALDEE
B19: LC3A_45_1980 (protein)
chain: MYEATVDILVPRELAEKAKAAALEAMDEIEKKYGDKVKVDRERLDASYEASKDEEDVYLEVRIFAPNKELALDAADELEDYLREKLGDRVAAIISVKEVP

The full ranking holds about 2,300 sequences; the median of “median log2 fold change of GCK-ALFA target abundance (FLAG IP / Myc IP barcode read proportion)” is about 0.095, and the lowest 2% start at about -0.47. The list shows a part of the results.

This assay deals with MAP1LC3A, Q9H492. Kind of assay: median log2 fold change of GCK-ALFA target abundance (FLAG IP / Myc IP barcode read proportion) (log2 ratio); each designed protein is fused to an ALFA-tag nanobody in HEK293 cells to bring the named protein to FLAG-tagged glucokinase (GCK); Myc marks an untargeted standard; higher = target protein stabilised (more abundant). The conditions noted are these: target protein: 3xFLAG-MCP-GCK-ALFA reporter; HEK293 landing pad (RPLP). Summed up: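 An ALFA-nanobody-fused binder library was recombined into HEK293 landing-pad cells and induced with 2 μg mL^−1 doxycycline. Cells were transfected with a plasmid expressing a FLAG-tagged target and a Myc-tagged standard. After 48 h, lysates underwent anti-FLAG and anti-Myc immunoprecipitation, and circular RNA barcodes were reverse transcribed, amplified and sequenced. Target abundance is the per-binder median log2 ratio of FLAG to Myc barcode read proportions. Barcodes needed ≥10^−7 proportion in both replicates, binders ≥3 barcodes per replicate, and a 10^−6 pseudocount was added; the two replicates were pooled.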
For B1, the “median log2 fold change” value worked out at 0.35.

With B2, the “median log2 fold change” value came to 0.124.

In the case of B3, the “median log2 fold change” value was -0.0345.

On to B4, for which the “median log2 fold change” value was 0.325.

B5: the “median log2 fold change” value was -0.171.

With B6, the “median log2 fold change” value turned out to be 0.167.

On to B7, for which the “median log2 fold change” value is -0.118.

For B8, the “median log2 fold change” value was found to be 0.302.

As to B9, the “median log2 fold change” value is 0.389.

As for B10, the “median log2 fold change” value stood at 0.164.

With B11, the “median log2 fold change” value came out at 0.289.

B12: the “median log2 fold change” value turned out to be 0.205.

For B13, the “median log2 fold change” value is 0.245.

Regarding B14, the “median log2 fold change” value turned out to be 0.246.

Take B15: the “median log2 fold change” value is -0.109.

B16: the “median log2 fold change” value was -0.133.

As to B17, the “median log2 fold change” value was 0.227.

In the case of B18, the “median log2 fold change” value is 0.255.

For B19, the “median log2 fold change” value was 0.132.

Source of the values: the supplement of paper PMC12632987.
